Drawing on PubChem BioAssay (NCI), this text covers TGI and GI50 for two compounds.

Test systems include HCC-2998 colon; HCT-15 colon; K-562 leukemia; HL-60(TB) leukemia; SR leukemia; CCRF-CEM leukemia; NCI/ADR-RES ovarian; RXF 393 renal; HCT-116 colon; HOP-62 NSCLC; XF 498 CNS; SF-295 CNS; RPMI-8226 leukemia; DMS 114 small cell lung; DMS 273 small cell lung; SF-539 CNS.
What all share (assay): growth of human tumour cells (NCI), 48 h

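Dose response: 5 concentrations. Exposure: 48 h. Format: 96-well plates. Endpoint: linear interpolation; highest concentration if not reached. Here, GI50 denotes the concentration required for 50% inhibition of growth.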 The source holds more than one record for some entries. This list holds those alone. There may be further records. A record mostly stands for its own series of concentrations, not given here; some values may only mark the edge of a range.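 TGI denotes the concentration required for complete inhibition of growth.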

For the compound `CC1=NN(C(=O)c2ccccc2O)C(=O)/C1=C/c1ccc([N+](=O)[O-])cc1`, the TGI in the assay on HCC-2998 colon was 7.26 µM and > 100 µM; in the assay on HCT-15 colon it was 3.54 µM and > 100 µM; in the assay with K-562 leukemia, 762 nM and > 100 µM; in the assay on HL-60(TB) leukemia, 3.29 µM and > 36 µM; with SR leukemia it was 4.23 µM and > 100 µM; in the assay with CCRF-CEM leukemia, 1.37 µM and > 100 µM. In addition, the TGI in the assay on NCI/ADR-RES ovarian is 7.78 µM and > 100 µM; with RXF 393 renal, 2.9 µM and 81.8 nM; in the assay on HCT-116 colon, 2.3 µM and > 100 µM.
`CC1[C@@H]2[C@@H](C=C3C4CCC5Cc6nc7c(nc6C[C@@]5(C)C4C[C@H](O)[C@]32CO)CC2CCC3C4=C[C@H]5O[C@@]6(O[C@@](C)(CO)C[C@@H]6O)C(C)[C@@]5(O)[C@]4(C)[C@@H](O)CC3[C@]2(C)C7)O[C@]12CCC(C)(C)O2` (some centres undefined): the TGI is 34.9 nM and 2.43 nM with HOP-62 NSCLC; 353 nM and > 3.65 µM in the assay on K-562 leukemia; 727 nM and < 0.365 nM in the assay on XF 498 CNS; 5.81 nM and 0.39 nM with SF-295 CNS; 11.6 nM and > 3.65 µM with RPMI-8226 leukemia; 140 nM and > 3.65 µM with CCRF-CEM leukemia. The TGI with RXF 393 renal was 19.9 nM and 0.507 nM; with DMS 273 small cell lung, 11.1 nM and 0.744 nM; in the assay on SF-539 CNS, 12.4 nM and 175 nM. Further, the GI50 in the assay with DMS 114 small cell lung was < 0.365 nM [1 test] and 4.66 nM [mean of 2 tests].
